This is an account of results in patent publication US12390508B2, “Brain natriuretic peptide engrafted antibodies” (Boehringer Ingelheim International GmbH, priority 2018, dated 2025).

Series [1] concerns PE-contracted aortic rings. Description: Vasorelaxation of phenylephrine-contracted isolated rat aortic rings. The protocol: All experiments were conducted in accordance with institutional guidelines and approved by the local committee on animal experiments. Male Sprague-Dawley rats (weighing 250-300 g) were anesthetized with pentobarbital sodium (40 mg/kg i.p.), killed by decapitation, and exsanguinated. The thoracic aorta was excised and placed in ice-cold Krebs buffer of the following composition: 130 mM NaCl, 14.9 mM NaHCO3, 5.5 mM dextrose, 4.7 mM KCl, 1.18 mM KH2PO4, 1.17 mM MgSO47H2O, and 1.6 mM CaCl22H2O. The vessel was pinned in a Sylgard Petri dish filled with chilled Krebs' solution, cleaned of fat and connective tissue, and cut into ring segments of approximately 3 to 4 mm in length. […] Changes in isometric force were recorded using a PowerLab data acquisition system (software Lab Chart 7.0)
After the equilibration period, aortic rings were challenged with 80 mM KCl to check tissue viability. Next, the endothelial integrity of the preparations was determined by verifying the responsiveness to acetylcholine (ACh, 1 μM) in vessels pre-contracted with Phenylephrine (PE, 1 μM). After wash-out and a period of equilibration, Phenylephrine (PE, 1 μM) was used to induce contraction, thereafter natriuretic peptides and natriuretic peptide engrafted IgGs were evaluated for vasorelaxation.

Series [2] deals with T1, neutral endopeptidase (NEP) (Homo sapiens, UniProt P08473).
T1 construct: purchased R&D Systems 1182-ZNC
Description: Sensitivity towards proteolytic degradation by neutral endopeptidase (NEP). The class given is in vitro ADME. The following applies: 4 hours incubation with 0.6 μg/ml NEP at 37° C., then activity on the rat receptor cell line.

Series [3] relates to spontaneously hypertensive rats. Description: Blood pressure by radiotelemetry in conscious spontaneously hypertensive rats. The class given is in vivo, rat. As to conditions: 30 mg/kg intraperitoneally. How it is done:
Blood pressure and heart rate were monitored in freely moving conscious animals by radiotelemetry (Data Sciences International). Female spontaneously hypertensive rats (SHR/N Crl BR, Charles River) with a body weight of 210-300 g were used for these studies. All animals were housed in individual cages at 22-24° C. ambient temperature and maintained on a 12-hour light/dark cycle with free access to standard laboratory rat chow and water ad libitum. Telemeter (HD-10, DSI) implantation was performed a minimum of 14 days before animals were used for blood pressure measurements. Surgery was performed under aseptic conditions. After shaving the abdominal wall, a midline abdominal incision was made, and the fluid-filled sensor catheter was inserted upstream into the exposed descending aorta between the iliac bifurcation and the renal arteries. According to the DSI guidelines the tip of the telemetric catheter was located caudal to the renal arteries and secured by tissue adhesive. The transmitter body was affixed to the inner peritoneal wall before closure of the abdomen. For postsurgical protection against infections and pain a single dosage of an antibiotic (Oxytetracyclin® 10%, 60 mg/kg s.c., 0.06 ml/100 g body weight, Beta-Pharma GmbH & Co, Germany) and analgesic were injected (Rimadyl®, 4 mg/kg s.c., Pfizer, Germany). Telemetric data acquisition was performed by DSI software was predefined to sample hemodynamic data for 10 seconds repeated every 5 minutes. Data collection was started at least 2 hours before drug administration and finished after completion of measurement cycles. Data are expressed as % of basal values±SEM of at least 4 animals per group. The basal value for each animal was calculated as the average of the values measured in two hours prior to substance application (7:00-9:00 AM). Data are then expressed as averages every half hour, starting 15 minutes post application. All animals were treated with a single intraperitoneal (ip) application of test substances dissolved in phosphate buffered saline (PBS). Drug administration took place at 9:00 AM (0 hours).

For series [4] the following is noted: rat, in vivo, iv, 5 mg/kg. How it is done: Pharmacokinetic parameters of TPP-10992 (SEQ ID NO 76 and SEQ ID NO 66) and TPP-5661 (SEQ ID NO 67 and SEQ ID NO 66) were determined after intravenous administration of 5 mg/kg to male Wistar rats (n=3). TPP-10992 and TPP-5661 were given as a bolus injection via the tail vein. Blood samples were collected from the jugular vein via previously implanted catheters in time intervals up to 14 days (336 hours). Generated EDTA-plasma was stored at −20° C. until further analysis.
The quantification of TPP-10992 and TPP-5661 in plasma samples was performed employing an anti-human IgG ELISA (enzyme-linked immunosorbent assay) format. Pharmacokinetic parameters were calculated from plasma concentration time profiles using non-compartmental data analysis.

Series [5] addresses T2, insulin degrading enzyme (IDE) (Rattus norvegicus, UniProt P35559).
T2 sequence (P35559 42-1019 limits assumed): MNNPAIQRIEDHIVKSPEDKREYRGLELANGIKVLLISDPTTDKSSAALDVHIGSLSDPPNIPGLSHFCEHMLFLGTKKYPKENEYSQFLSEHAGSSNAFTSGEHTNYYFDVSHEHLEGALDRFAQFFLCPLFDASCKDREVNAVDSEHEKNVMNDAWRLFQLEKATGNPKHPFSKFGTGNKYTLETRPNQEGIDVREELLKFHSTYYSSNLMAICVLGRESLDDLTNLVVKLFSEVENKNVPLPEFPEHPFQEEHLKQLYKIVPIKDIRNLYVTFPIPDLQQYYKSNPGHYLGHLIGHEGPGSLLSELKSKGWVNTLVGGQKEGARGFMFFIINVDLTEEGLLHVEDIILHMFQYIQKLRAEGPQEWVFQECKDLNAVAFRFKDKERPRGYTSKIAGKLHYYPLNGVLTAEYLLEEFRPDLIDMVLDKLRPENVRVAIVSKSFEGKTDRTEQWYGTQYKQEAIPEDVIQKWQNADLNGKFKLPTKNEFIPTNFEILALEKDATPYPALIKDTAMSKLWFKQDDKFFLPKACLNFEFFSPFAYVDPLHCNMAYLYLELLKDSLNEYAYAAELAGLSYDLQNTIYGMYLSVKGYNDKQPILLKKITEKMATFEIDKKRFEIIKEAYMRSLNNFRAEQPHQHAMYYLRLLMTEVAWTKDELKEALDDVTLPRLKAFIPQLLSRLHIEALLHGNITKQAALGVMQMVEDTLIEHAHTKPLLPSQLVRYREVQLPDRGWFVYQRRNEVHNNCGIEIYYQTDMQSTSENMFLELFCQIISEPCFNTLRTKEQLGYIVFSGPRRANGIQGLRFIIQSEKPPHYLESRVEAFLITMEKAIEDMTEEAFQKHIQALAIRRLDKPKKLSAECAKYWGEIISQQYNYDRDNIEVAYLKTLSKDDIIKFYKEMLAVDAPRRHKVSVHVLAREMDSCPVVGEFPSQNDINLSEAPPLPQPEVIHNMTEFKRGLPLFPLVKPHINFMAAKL
The experiment in a line: Sensitivity towards proteolytic degradation by insulin degrading enzyme (IDE). The following applies: 4 hours incubation with 0.6 μg/ml IDE at 37° C., then activity on the rat receptor cell line.

A further series has as its system beagle dogs. The experiment in a line: Hemodynamics in conscious telemetered beagle dogs. The class given is in vivo, dog. How it is done:
The effects of TPP-10992 on cardiovascular and ECG parameters after single subcutaneous administration were assessed in a primary pharmacodynamic study in conscious telemetered beagle dogs.
Telemetry devices (DSI™, USA) were surgically implanted to measure blood pressure as well as heart rate, followed by a recovery period to allow wound closure. On the day of the study, telemetry sensors were activated for continuous hemodynamic measurements. The transmitted signals were collected by telemetry receivers located in the animal facility. All collected data were processed by a data acquisition program and averaged over a predefined period of 12 h. As vehicle for TPP-10992 NaCl (0.9%) was used and doses of 0.1 mg/kg, 0.3 mg/kg and 1.0 mg/kg bodyweight were applied via subcutaneous injection.

Series [6] is described as follows: Pharmacokinetics after intraperitoneal administration in mice (anti-human IgG ELISA). The class given is in vivo, mouse. The following applies: intraperitoneal administration of 5 mg/kg. How it is done:
Pharmacokinetic parameters of TPP-12897 were determined after intraperitoneal administration to female Balb/c mice (n=3). Blood samples were collected from 15 minutes up to 72 hours post application. Generated EDTA-plasma was stored at −20° C. until further analysis. The quantification of TPP-12897 in plasma samples was performed by an anti-human IgG (Immunoglobulin G) ELISA format.
Pharmacokinetic parameters were calculated from plasma concentration time profiles using non-compartmental data analysis.

Numbering of substitutions follows the chain as printed. Like-named read-outs stand apart in the source and are kept apart here. A value given as a limit tells only on which side of the number the result lay.

T1 sequence (P08473 52-750 limits assumed): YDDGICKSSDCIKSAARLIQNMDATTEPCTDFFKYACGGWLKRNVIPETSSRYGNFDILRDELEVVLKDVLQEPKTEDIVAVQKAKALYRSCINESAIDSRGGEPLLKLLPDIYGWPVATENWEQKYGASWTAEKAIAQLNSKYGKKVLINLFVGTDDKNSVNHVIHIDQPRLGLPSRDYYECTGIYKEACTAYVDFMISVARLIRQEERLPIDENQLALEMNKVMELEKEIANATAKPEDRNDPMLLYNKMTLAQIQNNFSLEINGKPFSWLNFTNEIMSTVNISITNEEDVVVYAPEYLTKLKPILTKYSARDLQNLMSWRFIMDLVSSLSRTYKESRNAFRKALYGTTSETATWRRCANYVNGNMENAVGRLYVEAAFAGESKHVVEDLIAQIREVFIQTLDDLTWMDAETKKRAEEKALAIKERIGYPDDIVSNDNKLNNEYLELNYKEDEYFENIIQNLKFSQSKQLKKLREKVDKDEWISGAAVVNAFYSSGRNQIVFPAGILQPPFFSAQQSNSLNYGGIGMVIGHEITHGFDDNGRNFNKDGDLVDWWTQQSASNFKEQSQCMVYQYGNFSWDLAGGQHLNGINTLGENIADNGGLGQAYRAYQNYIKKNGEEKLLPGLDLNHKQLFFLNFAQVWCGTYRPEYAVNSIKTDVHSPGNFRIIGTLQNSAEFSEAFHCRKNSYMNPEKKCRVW

B1: TPP-10992: compound 9 IgG4, ANP engrafted in CDRH1; HC SEQ ID NO 76, LC SEQ ID NO 66 (antibody, listed as Homo sapiens)
heavy: EVQLLESGGGLVQPGGSLRLSCAASGFTFGSGSGSGSGSGSPDGGSGGSLRRSSCFGGRMDRIGAQSGLGCNSFRYGSYGSGSGSGSGSGMSWVRQAPGKGLEWVSAISGSGGSTYYADSVKGRFTISRDNSKNTLYLQMNSLRAEDTAVYYCAKLTGAEYFQHWGQGTLVTVSSASTKGPSVFPLAPCSRSTSESTAALGCLVKDYFPEPVTVSWNSGALTSGVHTFPAVLQSSGLYSLSSVVTVPSSSLGTKTYTCNVDHKPSNTKVDKRV[in this place human IgG4 Fc with S228P (EU numbers)]
light: QSVLTQPPSVSGAPGQRVTISCTGSSSNIGAGYDVHWYQQLPGTAPKLLIYGNSNRPSGVPDRFSGSKSGTSASLAITGLQAEDEADYYCQSYDSSLSGVVFGGGTKLTVLGQPKAAPSVTLFPPSSEELQANKATLVCLISDFYPGAVTVAWKADSSPVKAGVETTTPSKQSNNKYAASSYLSLTPEQWKSHRSYSCQVTHEGSTVEKTVAPTECS
modifications: NP engrafted HC
With B1, in series [1] (endothelium-intact rat aortic rings contracted by phenylephrine (1 μM), 0.0001-10 μM), the “Potency (log EC50 values), vasodilation” value is recorded as −6.7. Also, the “vasodilation in PE-contracted aortic rings” value in series [1] (rat aortic rings, phenylephrine 1 μM) is on record as “dose-dependent vasodilation”. The “sensitivity towards proteolytic degradation by NEP” value in series [2] is reported as “high resistance”. Also, in series [3], the “duration of effect on MAP” value is recorded as “greater than 6 days”, the “reduction in mean arterial blood pressure (MAP)” value is given as “approximately 20%” and the “time of maximum effect on MAP post application” value was found to be 48 h. For the same molecule, in series [4], the “Mean clearance (CL)” value was 6.48 mL/day/kg and the “terminal half-life (t1/2)” value is recorded as 184 h. Further, in series [5], the “sensitivity towards proteolytic degradation by IDE” value is given as “high resistance”. Besides, the “reduction in blood pressure compared to placebo” value in the series with beagle dogs (healthy beagle dogs, 1.0 mg/kg s.c.) was “significant”. Further, in the series on beagle dogs (healthy beagle dogs, 0.1, 0.3 and 1.0 mg/kg single subcutaneous), the “reduction in blood pressure” value was “dose-dependent and long-lasting”. Further, the “effects on heart rate” value with beagle dogs (healthy beagle dogs, 0.1-1.0 mg/kg s.c.) is “No effects”. In the series with beagle dogs (healthy beagle dogs, single subcutaneous), the “duration of reduction in blood pressure” value is over 5 days.

B2: TPP-12897: CNP engrafted antibody based on TPP-12377, LC_S98D; HC SEQ ID NO 445, LC SEQ ID NO 447 (antibody, listed as Homo sapiens)
heavy: EVQLLESGGGLVQPGGSLRLSCAASGFTFSSYAMSWVRQAPGKGLEWVSAISGSGGSTYYADSVKGRFTISRDNSKNTLYLQMNSLRAEDTAVYYCTSVHQETKKYQSSPYKGANKKGLSKGCFGLKLDRIGSMSGLGCGSGGSGSYSYTYNYEWHVDVWGQGTLVTVSS[in this place human IgG1 constant region]
light: B1 light with S98D
modifications: NP engrafted HC
B2: in series [6], the “Mean area under the curve (AUC)” value was 7705 µg·h/mL and the “terminal half-life (t1/2)” value was 194 h. Besides, the “sensitivity towards proteolytic degradation by NEP” value in series [2] is “high resistance”. In series [5], the “sensitivity towards proteolytic degradation by IDE” value is on record as “high resistance”.
